From PubChem BioAssay AID1508624 (National Center for Advancing Translational Sciences (NCATS), 2021)
Among all 48,000 compounds or so, about 120 (0.25%) were called active. Inconclusive results (about 4%) are left out. Calls come from the whole dose curve; as a rule, active = well fitted activation curve with a large enough effect; inconclusive = small, poorly fitted or top-dose-only effect, or another doubt; inactive = no such curve, though single readings can be large or run the other way. This is one part of the list.

experiment: Primary qHTS for Identification of Small Molecule Activators of Huntingtin-Antisense Promoter Activity; settings: HEK293 HTT-AS promoter firefly luciferase reporter, 24 h; series mostly up to 57.5 µM; activity change, positive = activation: at the top concentration; note: nearly all actives have a fitted effect of over 55% in size
In short: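 HEK293 luciferase promoter-reporter cells (2,500/well) plated 24 h, then compounds added at up to 57.5 uM final for 24 h at 37 °C. Firefly luminescence by Dual-Glo, normalized to vehicle (0%) and zero RLU (-100%).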

Row | Compound | activity change, positive = activation
1 | CCOC(=O)c1ccc(CN(Cc2ccc(F)cc2)S(=O)(=O)c2cc(C(=O)Nc3cccc(C(F)(F)F)c3)ccc2F)cc1 | inactive: -3.5%
2 | COc1cc2c(=O)c(S(=O)(=O)c3ccc(F)cc3)cn(Cc3ccc(Cl)cc3)c2cc1OC | inactive: 10.9%
3 | O=C(NC1CCCCCC1)c1ccc2c(c1)sc1nc(-c3ccc(F)cc3)cn12 | inactive: -0.271%
4 | CCCN1C(C(=O)c2ccccc2)=C(OC(=O)COc2ccccc2)c2ccccc2S1(=O)=O | inactive: -37.4%
5 | O=C(Nc1ccc(C(=O)OCc2cc(=O)n3c4c(sc3n2)CCCC4)cc1)c1ccccc1 | inactive: -4.86%
6 | CC1(C)O[C@@H]2C[C@H]3[C@@H]4CCC5=CC(=O)CC[C@]5(C)[C@@]4(F)[C@@H](O)C[C@]3(C)[C@]2(C(=O)CCl)O1 | inactive: -12.6%
7 | COc1ccc(C2C(C(N)=O)=C(C)Nc3nc(CCCO)nn32)c(OC)c1 (stereo unspecified) | inactive: -6.08%
8 | O=C(Cn1cnc2c(oc3ccccc32)c1=O)Nc1ccccc1C(F)(F)F | inactive: 4.06%
9 | COc1ccc(OC)c(NC(=O)CN(C)S(=O)(=O)c2ccc(C(=O)N3CCOCC3)s2)c1 | inactive: -13.4%
10 | COc1ccccc1NC(=O)Cn1c(=O)n(Cc2ccccc2)c(=O)c2sc3ccccc3c21 | inactive: -7.67%
11 | Cc1ccc(-c2nnc(Nc3cccc(Cl)c3)c3ccccc23)cc1S(=O)(=O)N1CCOCC1 | inactive: 19.6% [at 11.5 µM, percent change from vehicle, -100% = no light]
12 | COc1ccc(C)cc1NC(=O)N(Cc1ccc(C)o1)C1CCN(C(C)=O)CC1 | inactive: -13%
13 | CC(C(C)N1CC(=O)NC(=O)C1)N1CC(=O)NC(=O)C1 (stereo unspecified) | inactive: -32.8%
14 | Cc1cc(C)c(NC(=O)CSc2nc3ccccc3nc2N2CCCCC2)c(C)c1 | inactive: 10.7%
15 | CCCc1nc2sc3c(N4CCC(C)CC4)ncnc3c2c2c1CCCC2 | inactive: -5.02%
16 | CC(C)COc1cccc(C(=O)Nc2ccc(-c3nc4ncccc4o3)cc2)c1 | inactive: 4.88%
17 | CCC(C(=O)Nc1cccc(Cl)c1C)n1nc(-c2ccc(C)cc2)ccc1=O (stereo unspecified) | inactive: -29.6%
18 | O=C(NCc1cccc(Cl)c1)c1cc2ccc3cccnc3c2[nH]1 | inactive: 7.19%
19 | CC(C)COc1ccc(C(=O)Nc2ccc(S(=O)(=O)Nc3ncccn3)cc2)cc1 | inactive: -6.59%
20 | CCC(=O)Nc1cc(C)c(O)c(-c2nc3ncccc3o2)c1 | inactive: 4.2%
21 | CC1CCN(C(=O)Cn2cc(SCC(=O)NCc3ccccc3Cl)c3ccccc32)CC1 | inactive: -30.7%
22 | O=C(Nc1cccc(Cl)c1)N1CCSc2ccccc21 | inactive: -7.29%
23 | CCN(CC)c1cc(C)c2cc(NC(=O)c3cccc(F)c3)ccc2n1 | inactive: -3.5%

Row | Compound | activity change, positive = activation
24 | CSc1ccc(CCNC(=O)c2cnn(-c3ccccc3)c2-n2cccc2)cc1 | inactive: -34.9%
25 | Cc1cccc(NC(=O)c2cc(S(=O)(=O)N3CCc4ccccc43)ccc2F)c1C | inactive: -32%
26 | COc1ccc(OC)c(-c2cc(C(=O)NCCc3ccccc3)c3c(-c4ccc(C)cc4)[nH]nc3n2)c1 | inactive: -28.5%
27 | COCCCNC(=O)CS(=O)Cc1nc(-c2cccc(C)c2)oc1C (stereo unspecified) | inactive: -1.34%
28 | CCOc1ccccc1NC(=O)c1c(NC(=O)COc2ccccc2)sc2c1CCCCC2 | inactive: -51.5%
29 | CC(NC(=O)CCCC1=NS(=O)(=O)c2ccccc2N1)c1ccccc1 (stereo unspecified) | inactive: -1.35%
30 | CCCn1cc(S(=O)(=O)c2ccccc2)c(=O)c2cc(F)c(N3CCCCC3)cc21 | inactive: -6.58%
31 | Cc1ccc(N2C(=O)CSC23C(=O)N(CC(=O)NCCc2ccccc2)c2ccccc23)cc1C (stereo unspecified) | inactive: -20.1%
32 | COc1ccc(CCNC(=O)c2cnc3ccc(C)cn3c2=O)cc1 | inactive: 11.4%
33 | CCCS(=O)(=O)c1c(S(=O)(=O)CCC)c2cc(CC)ccn2c1C(=O)c1ccc(OC)cc1 | inactive: -16.6%
34 | Cc1nc(NC(=O)N2CCC[C@@H]2C(N)=O)sc1-c1ccnc(C(C)(C)C(F)(F)F)c1 | inactive: -7.17%
35 | COc1cccc(Cn2nnc(C(=O)Nc3cc(C)ccc3C)c2N)c1 | inactive: -29.9%
36 | CCOc1ccc(NC(=O)N2CCC(C(N)=O)(N3CCCCC3)CC2)cc1 | inactive: -0.0098%
37 | Cc1ccn2c(=O)c(C(=O)NCCc3ccccc3)c(O)nc2c1 | inactive: 11.9%
38 | O=C(CCc1nc(-c2cccs2)no1)Nc1ccccc1[N+](=O)[O-] | inactive: -0.768%
39 | O=C(Cn1c(=O)n(Cc2ccccc2)c(=O)c2sc3ccccc3c21)NCc1ccccc1Cl | inactive: -10.5%
40 | O=C(NC1CC(=O)N(c2cccc(F)c2)C1)c1ccc(S(=O)(=O)N2CCCC2)cc1 (stereo unspecified) | inactive: -14.4%
41 | Cc1ccc2nc(NC(=O)CSc3nccn3Cc3ccc(Cl)cc3)sc2c1 | inactive: 8.09%
42 | Cc1ccc(CNC(=O)CCc2c(C)nc3c(c(C)nn3-c3ccccc3)c2C)cc1 | inactive: -28.1%
43 | COc1ccc(C(=O)c2oc3ccccc3c2NC(=O)COc2ccccc2)cc1 | inactive: 0.724%
44 | CCN(CC)C(=O)/C(C#N)=C/c1cc(O)c(O)c([N+](=O)[O-])c1 | inactive: -12.8%
45 | COc1ccc(CCNC(=O)c2sc3nc4n(c(=O)c3c2C)CCCC4)cc1OC | inactive: 6.85%
46 | CCc1cccc(C)c1NC(=O)CC1Oc2ccc(C)cc2NC1=O (stereo unspecified) | inactive: -3.19%

Row | Compound | activity change, positive = activation
47 | O=C(COc1ccc(Cl)cc1)OCc1cc(=O)n2nc(-c3cccs3)sc2n1 | inactive: 6.04%
48 | CC(C)n1c(=N)c(C(=O)NCc2cccnc2)cc2c(=O)n3ccccc3nc21 | inactive: 4.6%
49 | COc1ccc(Cl)cc1NS(=O)(=O)c1cc(Br)cc2c1N(C(=O)C1CC1)CC2 | inactive: -36.7%
50 | Cc1ccc(NC(=O)C2CCN(c3nc4ccccc4nc3C(F)(F)F)CC2)cc1F | inactive: 9.72%
51 | COc1ccc(C(=O)Nc2nnc(S(=O)(=O)N3CCCCCC3)s2)cc1OC | inactive: -26.7%
52 | CCOC(=O)c1cc(-c2ccccc2)n(-c2cccc(C(=O)Nc3cccc(F)c3)c2)c1C | inactive: -29.2%
53 | COc1cccc(CNC(=O)CCCN2C(=O)CCn3nc(-c4cccn4C)cc32)c1 | inactive: 3.53%
54 | CCOC(=O)c1cccc(NC(=O)Cn2c(=O)nc(-c3ccccc3F)c3cc(Cl)ccc32)c1 | inactive: -10.7%
55 | CCn1c(=O)c2cc(C(=O)N(CC(C)C)CC(C)C)sc2c2ccccc21 | inactive: -15.6%
56 | Cc1ccc(CNc2ncnc3c2nc2n3CCCC2)cc1 | inactive: -5.75%
57 | CCN(C(=O)CSc1nc2ccccc2n1CC(=O)NCc1ccc(OC)cc1)c1ccccc1 | inactive: -7.21%
58 | CCOC(=O)c1cc(-c2ccccc2)n(CCC(=O)NC2CCCCC2)c1C | inactive: -36%
59 | Cc1ccc2nc(CSc3nnc(NC(=O)c4cccc(Br)c4)s3)cc(=O)n2c1 | inactive: -1.15%
60 | CCOC(=O)c1ccc(NC(=O)CN2c3ccccc3S(=O)(=O)c3ccccc32)cc1 | inactive: -30.2%
61 | CNC(=O)C1CCC(Cn2c(=O)c3sccc3n(CC(=O)NCc3cccc(OC)c3)c2=O)CC1 (stereo unspecified) | inactive: -19.5%
62 | Cc1cccc(-c2nc3scc(CCNC(=O)c4ccc(Br)o4)n3n2)c1 | inactive: -16.6%
63 | Nc1nc2c(c(=O)[nH]1)N(C=O)[C@H](CNc1ccc(C(=O)N[C@@H](CCC(=O)O)C(=O)O)cc1)CN2 | inactive: -5.43%
64 | COc1ccc(CNC(=O)CN2C(=O)COc3ccc(S(=O)(=O)NC4CCCC4)cc32)cc1 | inactive: -19.2%
65 | COc1ccccc1NC(=O)CSc1nnc2c3ccccc3n(C(C)C)c2n1 | inactive: -29.9%
66 | COc1ccc(/C=C\c2onc(C)c2S(=O)(=O)N2CCC(C(=O)Nc3cccc(Cl)c3)CC2)cc1 | inactive: -28.2%
67 | COc1ccc(CCNC(=O)CCc2c(C)nc3cc(-c4ccccc4OC)nn3c2C)c(OC)c1 | inactive: -60.3%
68 | Cc1ccc(Nc2nnc(-c3cc4c(ccc5ccccc54)oc3=O)s2)cc1 | inactive: -17.3%
69 | COc1cccc(C(=O)N2CCc3c([nH]c4ccccc34)C2c2ccc(SC)cc2)c1 (stereo unspecified) | inactive: -23.7%

Row | Compound | activity change, positive = activation
70 | CCOC(=O)c1ccccc1NC(=O)n1ncc2cc(Cl)ccc21 | inactive: 0%
71 | CCc1cccc(C)c1NC(=O)c1cc(S(=O)(=O)N2CCOCC2)cn1C | inactive: -6.4%
72 | COc1cc(NC(=O)CCn2cnc3ccccc3c2=O)cc(OC)c1 | inactive: -20.1%
73 | CCCCOc1ccc(CNC(=O)c2cc3n(n2)CCCN(Cc2ccc(C)cc2)C3=O)cc1 | inactive: -23.4%
74 | CCCCSCCCNC(=O)c1cn(CC)c2ccc(S(=O)(=O)N3CCCCCC3)cc2c1=O | inactive: -17.6%
75 | COc1ccc(OCCn2c(C)nc3cc(C)c(C)cc32)cc1 | inactive: -10.3%
76 | COc1ccc(-c2c(C)nn3c(N4CCN(c5ccccc5)CC4)cc(C)nc23)cc1OC | inactive: -10.1%
77 | COc1ccc(NC(=O)CC2C(=O)N(c3ccc(F)cc3)C(=O)N2Cc2ccc3c(c2)OCO3)cc1 (stereo unspecified) | inactive: 2.77%
78 | C[C@@H](O)[C@H]1C(=O)N2C(C(=O)O)=C(S[C@@H]3CN[C@H](C(=O)N(C)C)C3)[C@H](C)[C@H]12 | inactive
79 | CCCn1c(=N)c(C(=O)NC2CCCC2)cc2c(=O)n3cccc(C)c3nc21 | inactive: -12.2%
80 | COc1ccc(/C=C(/C#N)c2nc(-c3ccc(-c4ccccc4)cc3)cs2)cc1OC | inactive: -24.3%
81 | CNC(=O)COc1ccc(NC(=O)c2ccc(-c3nn(C)c(=O)c4ccccc34)cc2)cc1 | inactive: -12.6%
82 | CCn1c(SCc2ccccc2Cl)nc(=O)c2c(C(=O)OC)cc(C3CC3)nc21 | inactive: -47.8%
83 | Cc1cc(C)c2c(-n3cccc3)c(C(=O)NCCCN3CCCCC3C)sc2n1 (stereo unspecified) | inactive: -13.6%
84 | O=C(O)[C@H](O)[C@@H](O)[C@H](O[C@@H]1O[C@H](CO)[C@H](O)[C@H](O)[C@H]1O)[C@H](O)CO | inactive: -1.06%
85 | COc1cc(-c2noc(-c3cc(C(C)C)[nH]n3)n2)cc(OC)c1OC | inactive: -2.01%
86 | Cc1nn(S(=O)(=O)c2ccc(Cl)cc2)c(C)c1S(=O)(=O)N1CCCCCC1 | inactive: -8.5%
87 | CCOC(=O)c1c(NC(=O)c2cc(=O)c3c(C)cc(C)cc3o2)sc(C(C)=O)c1C | inactive: -1.84%
88 | CC(=O)Nc1nonc1-c1nnc(SCc2ccc(Cl)cc2)n1C | inactive: -26.5%
89 | CCCOc1ccc(C(=O)Nc2cc(-c3nc4cc(C)cc(C)c4o3)ccc2C)cc1 | inactive: -2.61% [at 11.5 µM, percent change from vehicle, -100% = no light]
90 | CN1C(=O)c2ccccc2Sc2ccc(NC(=O)N3CCN(c4ccccc4F)CC3)cc21 | inactive: -16.2%
91 | CC(C)NC(=O)C1CCN(C(=O)N2CCOc3ccc(Cl)cc32)CC1 | inactive: -7.85%
